According to the supplement of paper PMC4166925:
± gives the standard deviation of the averaged measurements. Whole data set: some 33,000 sequences, median “E-score (dimensionless, -0.5 to 0.5)” near -0.046, cut for the highest 2% near 0.36. The list shows a part of the results.

test system: T1, SpTbr T-box DNA-binding domain (GST fusion); test: PBM E-score of 8-mer (E-score (dimensionless, -0.5 to 0.5)); Tbr is Tbrain of the sea star Patiria miniata (Pm) or the sea urchin Strongylocentrotus purpuratus (Sp); higher = stronger binding preference; most listed sequences are background and not binding sites; details: the construct has about 5 more residues each side
T1 sequence: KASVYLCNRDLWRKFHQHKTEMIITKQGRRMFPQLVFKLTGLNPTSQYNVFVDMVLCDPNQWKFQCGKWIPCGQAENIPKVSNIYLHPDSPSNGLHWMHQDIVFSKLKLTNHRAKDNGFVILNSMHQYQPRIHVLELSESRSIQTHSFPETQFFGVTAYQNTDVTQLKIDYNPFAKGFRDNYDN
Method in brief: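 GST-fused Tbr T-box DNA-binding domains (the whole T-box plus about five flanking residues) were expressed in BL21 E. coli at 20 °C and purified by glutathione affinity chromatography. Universal Agilent oligonucleotide arrays were made double-stranded by primer extension, incubated with 200 nM protein in PBS (pH 7.5), then scanned and quantified. Every ungapped 8-mer was scored from probe intensities. The Universal PBM Analysis Suite gave each word an enrichment E-score, averaged over duplicate arrays.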

Sequence | PBM E-score of 8-mer
CCCTTAGC | 0.0731 ± 0.092
CGTTAAAC | 0.141 ± 0.061
CACTAAAA | 0.111 ± 0.017
GGAAAAGA | -0.182 ± 0.073
ATTACGGA | -0.146 ± 0.017
AGGATCTA | -0.253 ± 0.084
GGCCGCAC | 0.209 ± 0.043
GATGTAAA | -0.184 ± 0.0032
TCGTAACA | 0.236 ± 0.033
AATCCCGT | -0.191 ± 0.024
GCCGCGCA | 0.026 ± 0.02
ACTCAGGA | -0.0747 ± 0.031
AAGATCGG | -0.0617 ± 0.039
GCGGTAAC | 0.154 ± 0.058
AAAACGTG | 0.225 ± 0.0046
GGCCGAAA | -0.148 ± 0.044
CTCCTTGC | -0.173 ± 0.0052
AACGAAGA | -0.078 ± 0.058
CCTATGGC | 0.0599 ± 0.083
AAACGGTC | -0.114 ± 0.041
AGAATGGG | -0.154 ± 0.054
GGCAGTGA | 0.0363 ± 0.075
AAAAGTTA | 0.0517 ± 0.032
ACTTTCGA | 0.0223 ± 0.045
GCGTACGC | -0.126 ± 0.033

Sequence | PBM E-score of 8-mer
AATCGGCA | -0.0412 ± 0.086
CAAAAGAG | 0.00863 ± 0.022
CTCACTGA | 0.111 ± 0.044
GGGCAGAC | -0.254 ± 0.013
CACCGGCC | -0.0438 ± 0.011
CGATGGAC | -0.125 ± 0.002
AATTCAAC | -0.101 ± 0.031
CTCCGGAA | -0.123 ± 0.049
GACTACGC | -0.0782 ± 0.051
ACTATCCG | 0.0311 ± 0.025
ATATTTGG | -0.125 ± 0.038
CCTACAGG | -0.0723 ± 0.028
TCTTTCCA | -0.145 ± 0.069
CCAGCCCG | -0.222 ± 0.059
ATAACAAG | 0.193 ± 0.064
AAAGGTAA | -0.15 ± 0.0096
CTACCTAC | -0.293 ± 0.0051
CACAGGTA | 0.141 ± 0.0043
AACTACTT | 0.0434 ± 0.044
CAAGCGGG | -0.2261 ± 0.0012
GGGGTCAC | 0.103 ± 0.041
AGAAATTA | -0.258 ± 0.012
AGAGGAGA | -0.116 ± 0.043
CAACGAAC | -0.1 ± 0.061
CTGCCGGC | 0.0699 ± 0.029

Sequence | PBM E-score of 8-mer
GTGGAACA | 0.0786 ± 0.038
GAAACAGA | -0.1542 ± 0.0003
TACCCACA | 0.134 ± 0.038
TCTCCCCA | -0.0395 ± 0.025
ATGCCGGA | -0.308 ± 0.05
GGCCGGTA | -0.0898 ± 0.023
TAAGGGTA | -0.1207 ± 0.0011
CAATAACC | -0.0937 ± 0.02
ACCCTTCA | 0.112 ± 0.077
CCTTATAG | -0.137 ± 0.0069
TAGATTGA | -0.249 ± 0.036
CCATATCG | -0.125 ± 0.032
ACTAAGCC | -0.223 ± 0.02
ATTCCAAT | 0.101 ± 0.05
AAGGCGCG | 0.3333 ± 0.00044
ATGCAATC | -0.0841 ± 0.019
ATGGACTA | -0.0835 ± 0.016
CGTATGAA | -0.0106 ± 0.026
CTTCTTTA | 0.00213 ± 0.1
CACACGAA | 0.0582 ± 0.055
AAACCCGC | 0.136 ± 0.044
TGGTTACA | 0.0299 ± 0.0034
ATACCTTC | 0.00689 ± 0.0019
ACCAGAAG | 0.0252 ± 0.0067
ACAGACTA | -0.194 ± 0.0063

Sequence | PBM E-score of 8-mer
GTAAATTA | -0.122 ± 0.028
CAGGCCGC | -0.0803 ± 0.0052
ACCTTCAG | -0.0468 ± 0.0081
CCGGCTCA | -0.107 ± 0.0084
ATGCCGAG | -0.199 ± 0.017
ACTGAGAC | -0.191 ± 0.022
ATGGCTTC | -0.12 ± 0.065
ATTACGCC | -0.0243 ± 0.041
AAATATCC | -0.0458 ± 0.0059
ACGCCGAC | 0.161 ± 0.084
TCGGTTAA | -0.0848 ± 0.015
CGGGTGGA | 0.00923 ± 0.0075
CTGCGAGC | 0.162 ± 0.0059
AACCGAAT | -0.178 ± 0.037
ATCTGTCA | 0.263 ± 0.043
CTCGATTC | -0.164 ± 0.026
GCAAGTAA | 0.0895 ± 0.0029
ATTTCCGG | -0.243 ± 0.04
GTGTGGCA | 0.292 ± 0.026
ATCTTCAG | -0.141 ± 0.0099
AAATTGGT | -0.122 ± 0.047
CACCTTGG | 0.45 ± 0.005
GCAGGCTA | -0.178 ± 0.05
ACGTGGGC | -0.0975 ± 0.06
CTGCCGGA | -0.156 ± 0.088

Sequence | PBM E-score of 8-mer
CTTCAGGA | -0.14 ± 0.02
AGTCAAAA | -0.181 ± 0.0086
CCAGCATA | -0.187 ± 0.08
ACACTTCA | 0.412 ± 0.0084
CCTGATAG | -0.0894 ± 0.034
ATCGGTCC | -0.101 ± 0.0079
AGAGCTCG | -0.266 ± 0.014
GTCTCGGA | -0.31 ± 0.009
AGGCTTGC | -0.114 ± 0.002
GGCGCGTA | 0.117 ± 0.017
GATATTCC | -0.118 ± 0.075
CCCCCCTA | -0.189 ± 0.0051
CGCATATA | -0.0151 ± 0.069
TATGCACA | -0.0282 ± 0.087
ACTTTACC | -0.0717 ± 0.028
TGGGATAA | 0.0854 ± 0.017
TCCTAGGA | -0.134 ± 0.08
ATGATTCC | -0.0927 ± 0.034
GAGTCGAA | 0.0619 ± 0.02
CTTGACCC | -0.308 ± 0.038
AGATCAGG | -0.145 ± 0.025
GTTCTATA | -0.135 ± 0.01
CTTCATGC | -0.135 ± 0.037
AGCGTCAC | 0.3328 ± 0.0021
AATGACAT | 0.0122 ± 0.015

Sequence | PBM E-score of 8-mer
TAAAGTAA | -0.14 ± 0.1
ACCTCAAG | 0.141 ± 0.0034
CATTGAAC | -0.171 ± 0.022
ACATCGGT | -0.0851 ± 0.019
AAGAGCAA | -0.0459 ± 0.021
CCCATAGA | -0.281 ± 0.032
CGCTAAAA | 0.252 ± 0.012
GTGCGCAC | 0.258 ± 0.028
ACCGCCAG | 0.09 ± 0.065
GAAAGTAA | 0.138 ± 0.057
AAGTGACG | 0.4 ± 0.0071
TCGTGACA | 0.325 ± 0.0037
CCCCCGGG | -0.0634 ± 0.012
AGCACGGG | -0.0867 ± 0.012
CATACCTA | -0.186 ± 0.058
CAATAGAG | -0.143 ± 0.12
ACGTGCCG | 0.199 ± 0.058
GGAGCAGA | -0.255 ± 0.057
AGAAGGTC | -0.2756 ± 0.0017
GAGGTGGA | 0.06436 ± 0.00017
GCCGAGGA | 0.0136 ± 0.025
ACCGAAGG | -0.165 ± 0.043
AGAAGTAT | -0.0503 ± 0.0051
CGCGTAGA | -0.0981 ± 0.0072
TACTAAGA | -0.124 ± 0.022

Sequence | PBM E-score of 8-mer
AAGACTGG | -0.0999 ± 0.0028
CGACAGAG | 0.0503 ± 0.04
CGAGTCCG | -0.131 ± 0.0027
CCTCGTCG | 0.244 ± 0.028
CAGGGGTC | -0.231 ± 0.086
TGGAGCCA | -0.0718 ± 0.046
AGATAGGC | -0.196 ± 0.00035
CTGCGGAC | -0.018 ± 0.086
CTAGTTAA | -0.0652 ± 0.081
AACTCGGC | -0.138 ± 0.099
GGGTCCAC | -0.0586 ± 0.0085
ACTGCAGA | -0.0918 ± 0.01
ACCACAGC | -0.156 ± 0.033
CTGGAAAA | -0.0263 ± 0.024
GGCAGAAA | 0.0136 ± 0.069
CGCTAGTC | 0.0969 ± 0.0088
GTCCTCAC | 0.2647 ± 0.0021
CTCGTCTA | -0.00184 ± 0.065
AAGTACAC | 0.101 ± 0.033
AAGCAATA | -0.197 ± 0.027
ATAGGCCC | -0.177 ± 0.11
AACGGCTA | 0.00613 ± 0.046
